± gives the standard deviation of the averaged measurements. The list shows a part of the results.
What follows are sequences tested on PfAP2-I AP2 domain 3 (GST-tagged) (assay: gcPBM binding intensity (ln(normalized median fluorescence intensity)); higher = stronger DNA binding).
How it was run: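 Binding intensity values are the highest Masliner-normalised natural-log median intensity among replicate spots of either probe orientation. The binding step lasted 1 h in 1× PBS with 1% milk, 0.2 mg/ml BSA, 0.5% salmon testes DNA and 0.03% Triton X-100, using GST-tagged P. falciparum DNA-binding domains expressed in E. coli on an Agilent 4 × 180k array of primer-extended double-stranded 36-bp intergenic genomic probes plus negative controls. Alexa488 anti-GST antibody and a 488 nm scan detected bound protein.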

Row | Sequence | gcPBM binding intensity (ln)
1 | TTTTTTTTTTTTTAAACATGCATAATAAATATAATA [TGCATGCA_site265] | 8.19 ± 0.86
2 | TTTTTTATTTTGTGCACACACATAAAAATATATATA [CACACA_site761] | 11.2 ± 0.31
3 | TTTTGTTGGATACAAAAATTACAAATTATTTAAAAA [TGCATGCA_negctrl_site532] | 7.54 ± 0.43
4 | TTTTTCAGAAAAGAAACACACATATTTATATTTATA [CACACA_site7167] | 7.51 ± 0.48
5 | TATATGTATATATATTAACACACAAAAAAAAAAAAA [CACACA_site8534] | 8.1 ± 0.64
6 | TAAACAAATAAATAAACACACAATATCTGTATTTAT [CACACA_site5978] | 7.46 ± 0.55
7 | ATTAAATCGATATATACACACATGTTTGGTATATTC [CACACA_site7285] | 7.58 ± 0.61
8 | TTAAAATAAAGTAGTGGTACAAAAAAAAAAAAAAAA [XGTACX_site6322] | 8.12 ± 0.65
9 | TAACCTATAATATTCACACACATATAAATATTATAG [CACACA_site6592] | 7.76 ± 0.3
10 | TTTTACTTAAAACACACACACACAAAAAAAAAAAAA [CACACA_site947] | 8.1 ± 0.54
11 | AGTAATAGTTTGTGCACACTCAAGTATATCATATAT [CACACA_site4034] | 10.9 ± 0.24
12 | AAAAAAAATATAATATGTACATATCTATATATCAAC [XGTACX_site4881] | 7.83 ± 0.46
13 | TATACATATGAAAATACACACATACATACAGATATA [CACACA_site5002] | 7.65 ± 0.31
14 | AACAAATATATATGTAGTACATGTTGTAGATAATTT [XGTACX_site24] | 7.93 ± 0.41
15 | TTTTTTTTTTTAAATTCACACAATATATAAATATTG [CACACA_site5201] | 7.82 ± 0.76
16 | AGAAAAATTATTTTGCGTACATATTTACAATAAAAA [XGTACX_site2144] | 7.96 ± 0.44
17 | TACGTAAAATAATTGAGTACATAATTATATATATAT [XGTACX_site5361] | 9.17 ± 0.071
18 | AAAAATAATCATTAGGTGCAAAAAATATATATATAT [GTGCAC_site9631] | 10.5 ± 0.15
19 | GTACATTATTTATATACACACAAAGAAAAATATACA [CACACA_site3452] | 7.95 ± 0.46
20 | TTTAAAATATATAGTACACACGTGAACACAAATACA [CACACA_site4392] | 7.96 ± 0.32
21 | TAAAGCATATTATAAACACACACTGTATAAAGATAT [CACACA_site296] | 7.78 ± 0.76
22 | CCTTTTTTGTTTTATGCACACCATATAACCAAGGCT [CACACA_site7893] | 10.5 ± 0.48

Row | Sequence | gcPBM binding intensity (ln)
23 | TAAATGTCCTTATTTGCACACACACCCATAAGAAAT [CACACA_site3185] | 9.98 ± 0.28
24 | TATATATAAAAATATACACACACAAATGTATATATA [CACACA_site7956] | 7.47 ± 0.32
25 | ATGTAATGAAACATTGCACACATATAATAATATAAT [CACACA_site8402] | 8.365 ± 0.049
26 | TTTTTATATGCGTATTGTACATTATACATATATATA [XGTACX_site6786] | 7.97 ± 0.38
27 | CGTATATATAAATACACACACATATATATCTGTAAA [CACACA_site4272] | 7.79 ± 0.48
28 | TTAATTTATTTATGCACACATATATAATTACCCATA [CACACA_site682] | 10.2 ± 0.67
29 | AAAAAAAAAAAAAAGCGTACAAATAAAATATATTTA [XGTACX_site7195] | 8.18 ± 0.38
30 | AATTAAATTACTTATACACACATAAAATGGGTGTAT [CACACA_site4703] | 7.37 ± 0.56
31 | ATTCTTATAACAAGAAGTACAAATATATGTATATAT [XGTACX_site4528] | 7.84 ± 0.27
32 | TTTTTTTTTAAGATGAAGATCAATATATAAATATAT [CACACA_negctrl_site1538] | 7.29 ± 0.67
33 | TTTTCTCTCAAAAAATGTACATAATATATATATTTT [XGTACX_site4861] | 7.82 ± 0.47
34 | AGAATATCAAAATAAAGTACATTTATTATATATATG [XGTACX_site7100] | 7.55 ± 0.29
35 | AAAAAAAAAAAACATACACACATACATACCTATATA [CACACA_site6575] | 7.63 ± 0.34
36 | AACATCAATTTATTTTCTTACATTATACGATTCATG [CACACA_negctrl_site1300] | 7.64 ± 0.62
37 | AAAAAAAAATCAAAATGTACTTATTTTTATAATAAT [XGTACX_site4712] | 7.51 ± 0.33
38 | TAATTATGCCAACACACACACACACCCAACTAAAAA [CACACA_site8823] | 8.22 ± 0.25
39 | AAACATAAGAAACACACACACATATATATATATATA [CACACA_site3642] | 9.36 ± 0.32
40 | ATGATGTGCAAGAGTAGTACACAATTTTGGGTTTAT [XGTACX_site501] | 8.6 ± 0.26
41 | ATTAATTATATATATACACACACATACACCCAAATA [CACACA_site9126] | 8.52 ± 0.16
42 | TAAATACTTCGTAAAACACACAAGTAGAAAAAAAAA [CACACA_site360] | 7.81 ± 0.71
43 | AAAAATATAATATATGCACACATACATACATATATA [CACACA_site7915] | 9.06 ± 0.057
44 | ATAATTAGTTCAATTTTTTTTTTTTTTTTTTTTTTT [CACACA_negctrl_site1371] | 9.525 ± 0.021

Row | Sequence | gcPBM binding intensity (ln)
45 | AAACAAAACAAAACATGTACACATTATATATATATA [XGTACX_site3374] | 9.29 ± 0.53
46 | TTATTTATTTATTGTTGTACACAAAATGATTCTTAA [XGTACX_site6480] | 8.18 ± 0.33
47 | TTCTAATAAATGTGTTGTACACCTTTAGCAACTATT [XGTACX_site3235] | 7.96 ± 0.37
48 | TATATAAATATATACACACATACATACATACATATA [CACACA_site3835] | 7.72 ± 0.42
49 | TAATAATTACAAAGAAGTACATAAAAAAAAATTTAT [XGTACX_site4684] | 7.67 ± 0.73
50 | CTATATATATATTTCAGTACATATTAAGAATATATA [XGTACX_site4860] | 7.69 ± 0.4
51 | AGGAAAAAAGAAAAAACACACATAAATATTTATATA [CACACA_site7446] | 7.44 ± 0.52
52 | TATATATATTTATGCACACAAAATATATTATATAAT [CACACA_site5955] | 9.86 ± 0.38
53 | TATACATCATTTTTCAACAACAAAAAAAAAAAAAAT [CACACA_negctrl_site1185] | 7.59 ± 0.47
54 | ATATATATAAATACAACACACATGTAATATATAAAT [CACACA_site5766] | 8.03 ± 0.48
55 | ACGTAAAATAGGGACGCATGCACAAATATTTTTAAA [TGCATGCA_site336] | 7.97 ± 0.7
56 | TGAACAATATATAATAGTACATATTTATTTTTTTCT [XGTACX_site4256] | 7.38 ± 0.55
57 | ATATGTTTTTTTTTTTTTTTTTAATTTGTCATAAAT [CACACA_negctrl_site1208] | 7.55 ± 0.5
58 | TCTTTCAATATTAATGCATGTTAATAATAAATTTTA [TGCATGCA_site448] | 7.96 ± 0.57
59 | TAAAGATGAAATATCACACATATATAAATATATAAA [CACACA_site4580] | 7.32 ± 0.35
60 | TCTTTCTTATTTTAATGATATTTATTCATTCCAGTT [CACACA_negctrl_site1679] | 7.65 ± 0.76
61 | ATATAAATAAATATATGTACACACACAAATATATAC [XGTACX_site3950] | 7.89 ± 0.49
62 | AAAAAACACGCGCACACACACACACGCGCCCACATA [CACACA_site7106] | 8.26 ± 0.65
63 | ATAAAAAAAAATATTTGTACACATATTTATATATTA [XGTACX_site8147] | 7.63 ± 0.36
64 | AATACTAAAACCCATACACACACATATATATAGTAC [CACACA_site9041] | 8.04 ± 0.61
65 | ACTTTTACACTTTGATTGCACTACTAAACCAGTTCA | 10.4 ± 0.16
66 | AGAATTATTCTAAAAACACACAATACAAAAGTGCAT [CACACA_site3004] | 7.83 ± 0.61

Row | Sequence | gcPBM binding intensity (ln)
67 | ATAACTTTCTATACATGTACACATATATGGTATTTT [XGTACX_site7535] | 8.01 ± 0.7
68 | ATAAATTTTTTATGAACACACAAATACACCCACTCA [CACACA_site5465] | 8.8 ± 0.35
69 | TGTATATATTTTAATAGTACTCATATATATATATAT [XGTACX_site7216] | 9.23 ± 0.085
70 | CTTATAAAAAAAATTGCACACATATTATACAGGACG [CACACA_site8133] | 8.48 ± 0.57
71 | TTTACATTTATGTGCACACATTCCATTTGAAAGTAA [CACACA_site1953] | 10.3 ± 0.23
72 | AATATTTTTTTTTAAACATGCATATTTGCATTACCC [TGCATGCA_site437] | 8.15 ± 0.82
73 | TTTTTTTTAATGAGAAGTACGGTCTTTCAATGTCTT [XGTACX_site6773] | 7.71 ± 0.34
74 | ATTGTGTTGACGGGTGACCCTTCCAGAGAAATAGAA [CACACA_negctrl_site1362] | 7.66 ± 0.7
75 | TAAAAATTAAAACTGGGTACAAATTTATAGATAGCC [XGTACX_site8075] | 7.86 ± 0.52
76 | CATTAACAAATAAATGCACACATATATATAAATAAT [CACACA_site7892] | 9.51 ± 0.35
77 | AATTTATTAGATAGATGTACATTTTAATAAAAGTAG [XGTACX_site6819] | 7.83 ± 0.43
78 | TCCCCTTAATTTAAAACACACAAACAAATAAGTTAG [CACACA_site5973] | 7.71 ± 0.44
79 | ATATATACAAAGGATTAACACACATATTATTATATA [CACACA_site8563] | 7.64 ± 0.56
80 | TTCGTTATAATTGAATTTACAATATGCTTTATAATG [XGTACX_negctrl_site238] | 7.58 ± 0.45
81 | TAAATTACATGAAATTGTACATGAATATTAAATATA [XGTACX_site3909] | 7.42 ± 0.4
82 | GTGTACAGTTTTTGCACACATATAAATAAAAAAAAG [CACACA_site3599] | 9.365 ± 0.078
83 | AAAATATTTATATTTACACACACATAATACATATAT [CACACA_site32] | 7.71 ± 0.57
84 | ATATATATGAATACATGTACGTATTTGTCTATGTAT [XGTACX_site8306] | 7.87 ± 0.47
85 | AATAAAGGAAATAAATAATTTATTTTGTAAAATATG [CACACA_negctrl_site97] | 7.6 ± 0.58
86 | CAATGTTAACATATTACACACATATGTATTTATAAT [CACACA_site5512] | 7.95 ± 0.37
87 | TAATATCATTTATGGGGTACCTCCTATTCTTATTTA [XGTACX_site1839] | 7.71 ± 0.59
88 | CGAACTGCACTTTTTAGTACTTAATAATTATTTTTT [XGTACX_site2446] | 10 ± 0.59
